# Reference: PubChem BioAssay AID624417 (National Center for Advancing Translational Sciences (NCATS), 2012)
# The campaign covered roughly 410,000 compounds. About 6,400 (1.6%) were called active. Inconclusive results, whose numbers are uncertain, are shown with a selection of clear calls. Calls follow the shape of the dose curve; as a rule, active = well fitted inhibition curve with a large enough effect; inconclusive = small, poorly fitted or top-dose-only effect; inactive = no such curve, though single readings can be large or run the other way. No potency is given beside an inconclusive call; the fits are too rough.
# Target: Glucagon-like peptide 1 receptor (Homo sapiens) (UniProt P43220)
# Experiment: qHTS of GLP-1 Receptor Inverse Agonists (Inhibition Mode); also: nearly all actives have a fitted effect of over 55% in size
# Conditions: HEK293 GLP-1R CRE-luciferase, luminescence, 24 h, GLP-1R form is constitutively active; activity change, negative = inhibition: at 38.3 µM (top of the series) unless noted
# How it was run: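 Inverse agonists were sought by their lowering of basal cAMP reporter luciferase output in HEK293 cells stably carrying constitutively active human GLP-1R, after 24 h compound treatment.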
# % is scaled to controls: 0 for no effect and ±100 for the full control effect; potency is read from the fitted curve at half-maximal effect; tags tell the direction and shape of the fitted curve.
# UniProt P43220, sequence (P43220 whole entry, looked up): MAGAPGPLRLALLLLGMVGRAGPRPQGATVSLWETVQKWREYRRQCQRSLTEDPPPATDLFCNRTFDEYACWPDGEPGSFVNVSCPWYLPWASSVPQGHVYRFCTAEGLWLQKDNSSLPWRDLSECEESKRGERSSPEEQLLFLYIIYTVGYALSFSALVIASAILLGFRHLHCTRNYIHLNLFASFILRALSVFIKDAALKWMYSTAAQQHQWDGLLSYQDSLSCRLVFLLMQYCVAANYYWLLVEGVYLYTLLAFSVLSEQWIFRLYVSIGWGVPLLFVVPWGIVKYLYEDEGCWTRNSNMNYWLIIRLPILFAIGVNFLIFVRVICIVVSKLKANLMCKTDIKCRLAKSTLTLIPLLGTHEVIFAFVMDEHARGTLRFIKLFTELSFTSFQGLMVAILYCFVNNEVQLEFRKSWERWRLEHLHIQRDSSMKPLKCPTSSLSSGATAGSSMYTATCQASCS
SMILES,"activity change, negative = inhibition",Potency
COC(=O)Cc1c(O)ccn(Cc2ccc3c(c2)OCO3)c1=O,inactive: 15.8%,–
COc1ccc(CCNC(=O)C(C)c2ccc([N+](=O)[O-])cc2)cc1 (centres undefined),–,"inconclusive [inhibitor, single point]"
COc1nnc(-c2ccc(N3CCOCC3)c(NC(=O)c3ccc(C)cc3)c2)c2ccccc12,–,"inconclusive [inhibitor, single point]"
Fc1cccc(NC(=S)N2CCc3ccccc32)c1,–,"inconclusive [inhibitor, single point]"
CCOC(=O)c1c(CN(CC)CC)n(-c2ccccc2)c2ccc(O)cc12,–,"inconclusive [inhibitor, single point]"
COc1ccc(C(CNC(=O)c2oc3ccc(C)cc3c2C)N2CCOCC2)cc1 (centres undefined),inactive: 4.75%,–
O=C(CCCOc1ccc(Cl)cc1)NCCc1ccccc1,–,"inconclusive [inhibitor, partial curve, poor fit]"
CN(CC(=O)NCCCc1ccccc1)Cc1ccc(Br)cc1,–,"inconclusive [inhibitor, partial curve, poor fit]"
COc1ccc(NC(=O)C2C3C=CC4(O3)C2C(=O)N(CCCN2CCCCC2)C4C(=O)NC2CCCC(C)C2C)cc1 (centres undefined),–,"inconclusive [inhibitor, partial curve, poor fit]"
CC(C)CC(C(=O)NC1CCCCC1)N(Cc1ccccc1)C(=O)c1snc(C(N)=O)c1N (centres undefined),–,"inconclusive [inhibitor, single point]"
COc1cccc(CCNC(=O)c2cc(COc3cccc(OC)c3)on2)c1,–,"inconclusive [inhibitor, single point]"
Cc1ccc(C)c(N2CCN(C3CCCCC3NS(=O)(=O)c3ccccc3)CC2)c1 (centres undefined),inactive: -34.3%,–
COc1cc(OC)cc(C(=O)Nc2ccc3nc(N4CCCCC4)cc(C)c3c2)c1,–,active: 11.2 µM
C=CCOC(=O)C(C#N)c1nc2ccccc2nc1N1CCN(c2ccccc2OC)CC1 (centres undefined),–,"inconclusive [inhibitor, partial curve, poor fit]"
CC(C)(C)N(Cc1ccccc1)C(=O)COC(=O)CCc1c[nH]c2ccccc12,–,"inconclusive [inhibitor, partial curve, poor fit]"
CCc1ccc(OCCOCC(O)CNC2CCCC2)cc1 (centres undefined),–,"inconclusive [inhibitor, partial curve, poor fit]"
COCc1cc(C)nc(SCC(=O)Nc2nc(C)cs2)c1C#N,–,"inconclusive [inhibitor, partial curve, poor fit]"
CCCn1c(C)cc(C(=O)COC(=O)c2cc(S(=O)(=O)NCC(C)C)c(Cl)cc2Cl)c1C,–,"inconclusive [inhibitor, single point]"
O=C(c1cc(Cl)nc2ccccc12)N1CCc2ccccc2C1,–,"inconclusive [inhibitor, partial curve, poor fit]"
Cc1ccc(NS(=O)(=O)c2ccc(C)c(NC(=O)COc3ccc4ccccc4c3)c2)c(C)c1,–,active: 5.01 µM

SMILES,"activity change, negative = inhibition",Potency
Cc1cc(Cl)c(OCCn2ccnc2)c(Br)c1,inactive: -2.27%,–
CCCCCC(=O)Nc1cc(S(=O)(=O)N2CCOCC2)ccc1Oc1ccc(OCC)cc1,–,"inconclusive [inhibitor, partial curve, poor fit]"
COc1ccc(-c2c3c(=O)n(C)c(=O)n(C)c3cn2-c2ccccc2O)cc1,inactive: 56.5%,–
Cc1ccc(C)c(CN2C(=O)c3ccccc3S(=O)c3ccc(C(=O)NCc4ccccc4)cc32)c1 (centres undefined),–,"inconclusive [inhibitor, partial curve]"
CCCn1c(N)c(C(=O)CSc2nc3ccccc3s2)c(=O)[nH]c1=O,–,"inconclusive [inhibitor, full curve, poor fit]"
O=C(Nc1nc2c(cc3c4c(cccc42)CC3)s1)c1ccccc1Cl,inactive: 19.6%,–
COc1cc(CNc2nnnn2C)ccc1OCc1ccc(F)cc1Cl,–,"inconclusive [inhibitor, partial curve, poor fit]"
COc1cc(NC(=O)CCl)ccc(=O)c1,–,"inconclusive [inhibitor, single point]"
COc1ccccc1/C=C(/C(=O)OCC(=O)Nc1ccc(N(C)C)cc1)c1ccccc1,–,"inconclusive [inhibitor, partial curve, poor fit]"
CCN(CC)CCCN(C(=O)c1cccc(C)c1)c1nc(-c2ccc(OC)cc2)cs1,–,"inconclusive [inhibitor, partial curve, poor fit]"
CC(OC(=O)c1ccc2c(c1)OCCO2)C(=O)c1ccccc1 (centres undefined),–,"inconclusive [inhibitor, partial curve, poor fit]"
O=C(Nc1nc(OCC(F)(F)F)cnc1/C=C\c1ccccc1)c1ccsc1,–,"inconclusive [inhibitor, partial curve, poor fit]"
CC1CC(C)CN(Cc2nc(N)nc(Nc3ccccc3)n2)C1 (centres undefined),–,"inconclusive [inhibitor, full curve, poor fit]"
Clc1cccc(-c2ccc(CNCc3ccccn3)o2)c1,–,"inconclusive [inhibitor, partial curve, poor fit]"
CS(=O)(=O)N(CC(=O)N1CCN(c2ccccc2)CC1)Cc1ccc(Cl)cc1,–,"inconclusive [inhibitor, partial curve, poor fit]"
COc1ccc(CN(C(=O)c2ccco2)c2ccccc2)cc1,–,"inconclusive [inhibitor, partial curve, poor fit]"
Cn1c(CCN2CCCC2)nc2cc(NC(=O)COc3ccc(Cl)cc3)ccc21,–,"inconclusive [inhibitor, partial curve, poor fit]"
CCCCC(=O)NC(=S)Nc1cccc(Cl)c1N1CCCCC1,–,"inconclusive [inhibitor, partial curve, poor fit]"
Cc1ccc(-c2nnc(-c3cccc4ccccc34)o2)cc1,–,"inconclusive [inhibitor, full curve, poor fit]"
